PubChem BioAssay AID2202238 (Ras Initiative Chemistry Research Team, Frederick National …, 2025)
This is one part of the list. These are further read-outs of the screen, such as a control signal, another cell line or another target. No call is given for them.

Biological target: GTPase KRas (Homo sapiens) (UniProt P01116)
Experiment: Cysteine mutants labelled by reactive fragments (mass read-out) (AID 2202238)
Design: protein at 5 µM with 500 µM competing thiol for 1.5 h
Conditions: KRAS G12D cysteine mutants, disulfide tethering, MALDI-TOF labeling, stronger effect = higher value, fragment at 500 µM
[1] = measured here: G60C mutant labeling
[2] = measured here: G75C mutant labeling
[3] = measured here: H94C mutant labeling
[4] = measured here: I36C mutant labeling
[5] = measured here: L120C mutant labeling
[6] = measured here: M67C mutant labeling
[7] = measured here: M72C mutant labeling
[8] = measured here: N26C mutant labeling
[9] = measured here: N86C mutant labeling
[10] = measured here: P121C mutant labeling
[11] = measured here: S122C mutant labeling
[12] = measured here: S136C mutant labeling

Sequence of UniProt P01116 (P01116 whole entry, looked up, the tested form may be a part): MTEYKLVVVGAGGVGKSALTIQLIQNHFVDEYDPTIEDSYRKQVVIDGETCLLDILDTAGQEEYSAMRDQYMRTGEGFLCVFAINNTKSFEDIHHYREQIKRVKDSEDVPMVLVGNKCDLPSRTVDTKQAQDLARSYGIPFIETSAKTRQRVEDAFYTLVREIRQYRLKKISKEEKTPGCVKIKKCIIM

Structure (SMILES) | percent labeling [1] [%] | percent labeling [2] [%] | percent labeling [3] [%] | percent labeling [4] [%] | percent labeling [5] [%] | percent labeling [6] [%] | percent labeling [7] [%] | percent labeling [8] [%] | percent labeling [9] [%] | percent labeling [10] [%] | percent labeling [11] [%] | percent labeling [12] [%]
Cc1nnnn1-c1cc(F)cc(C(=O)NCCS)c1 | 38.5 | 18.7 | 38.9 | 31.1 | 36.3 | 38.9 | 37.7 | 44.3 | 29.8 | 35 | 36.8 | 46
O=C(NCCS)c1ccc(-n2cnc3ccccc32)nc1 | 24.1 | 11.4 | 13.5 | 12 | 13.5 | 14.1 | 33.7 | 27.9 | 13.8 | 12.2 | 8.6 | 16
Cc1ccc2c(CCNC(=O)CCS)c[nH]c2n1 | – | 19.6 | 31.4 | 49.8 | 37.4 | 36.1 | 39.1 | – | 29.5 | 33.8 | 32.7 | 51.3
CC(C)n1cc(C2=CCCN(C(=O)CCS)CC2)nn1 | – | 5.9 | 22.5 | 21.5 | 16.3 | 19.4 | 8.6 | – | 11.6 | 13.8 | 20.3 | 30.6
O=C(CCS)NCC12CC(Cc3ccccc3)(CO1)C2 | – | 24.3 | 38.3 | 41.6 | 46.7 | 51.2 | 40.5 | – | 26.3 | 38.1 | 38.8 | 60.7
NC(=O)C1(N2CCN(C(=O)CCS)CC2)CCCCC1 | – | 11.2 | 30.9 | 40 | 35.6 | 40.2 | 19.6 | – | 26.3 | 32.7 | 40 | 56.8
Cc1cc(NC(=O)CCS)nn1Cc1ccccc1Cl | – | 14.8 | 19.5 | 23.8 | 25.5 | 21.2 | 31.3 | – | 19 | 20.6 | 15.9 | 39.9
CN(Cc1nc2ccccc2c(=O)[nH]1)C(=O)CCS | – | 16.7 | 35.9 | 39.9 | 38.4 | 43.9 | 52.2 | – | 33 | 66.1 | 35.5 | 56.9
O=C(NCCS)c1ccc(Cl)c(N2CCNC2=O)c1 | 48.5 | 27.8 | 41.8 | 29.7 | 47.4 | 34.6 | 51.5 | 46.2 | 30.8 | 35.8 | 36.5 | 75.5
O=C(CCS)Nc1ccccc1CN1CCc2ccccc21 | – | 0 | 17.2 | 10.6 | 0 | 10.2 | 7 | – | 0 | 4.9 | 5.9 | 14
CCCN(CCC)C(=O)c1ccc(NC(=O)CCS)cc1 | – | 15 | 27.4 | 26.6 | 26.3 | 26.6 | 30.7 | – | 23 | 28 | 21.3 | 47.8
O=C(Cc1sc(-c2ccccc2)nc1-c1cccs1)NCCS | 33.2 | 13.3 | 13.5 | 8.7 | 14 | 5.3 | 27.9 | 14.5 | 6.3 | 8.1 | 2.8 | 15.8
O=C(CCCc1ccc2[nH]c(=O)[nH]c2c1)NCCS | 57.3 | 18.4 | 36 | 26.9 | 34.3 | 35 | 43.2 | 50.8 | 28.8 | 29.9 | 31.7 | 41.2
O=C(NCCS)C(c1ccncc1)C1CCCCC1 (centres undefined) | 60.5 | 22 | 35.5 | 32.3 | 35 | 36 | 32.1 | 40.3 | 26.7 | 30.5 | 24.3 | 38.7
O=C(NCCS)c1ccc(-n2ncc3ccccc32)c(Cl)c1 | 21.3 | 8.3 | 12.3 | 5.6 | 8.9 | 6 | 34.7 | 17.6 | 5.3 | 7.8 | 3.9 | 9.5
